According to the supplement of paper PMC12067093, “Discovery and optimisation of a covalent ligand for TRIM25 and its application to targeted protein ubiquitination” (Chemical Science, 2025):
Of roughly 21,000 targets only a part is listed; those with the largest changes were picked by preference.

Compound: CC1Cc2ccccc2N1C(=O)C1CCCN(C1)C(=O)CCl (mixture of isomers) [TRIM25 ligand 11 (diastereomer mixture)]
Assay: probe-labelled cysteine peptide fold change vs DMSO (competition) (log2 fold change); higher = less target engagement (more negative = stronger competition)
Settings: THP-1, incubation time: 4 h
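Further: competitive chemoproteomic profiling in live THP-1 cells with an iodoacetamide desthiobiotin (IA-DTB) probe, comparing probe-labelled peptide intensities in compound-treated cells against DMSO-treated controls.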

UniProt Q96G03, sequence (Q96G03 whole entry, looked up): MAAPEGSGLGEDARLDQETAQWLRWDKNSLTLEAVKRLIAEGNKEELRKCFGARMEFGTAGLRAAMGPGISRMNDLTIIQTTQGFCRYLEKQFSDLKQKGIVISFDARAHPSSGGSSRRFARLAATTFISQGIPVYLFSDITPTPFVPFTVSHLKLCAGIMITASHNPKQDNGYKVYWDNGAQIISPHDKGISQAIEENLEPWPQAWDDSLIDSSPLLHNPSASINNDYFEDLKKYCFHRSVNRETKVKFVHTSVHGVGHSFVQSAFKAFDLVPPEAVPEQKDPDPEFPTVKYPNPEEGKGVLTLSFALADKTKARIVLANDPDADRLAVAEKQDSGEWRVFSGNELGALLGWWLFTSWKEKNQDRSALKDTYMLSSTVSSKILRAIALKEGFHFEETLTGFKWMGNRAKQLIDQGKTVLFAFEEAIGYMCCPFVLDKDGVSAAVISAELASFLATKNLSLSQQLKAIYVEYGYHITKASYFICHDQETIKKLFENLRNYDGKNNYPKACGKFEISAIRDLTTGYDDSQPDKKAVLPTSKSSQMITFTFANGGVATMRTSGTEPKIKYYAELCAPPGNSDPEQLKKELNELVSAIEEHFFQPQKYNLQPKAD
UniProt O43314, sequence (O43314 whole entry, looked up): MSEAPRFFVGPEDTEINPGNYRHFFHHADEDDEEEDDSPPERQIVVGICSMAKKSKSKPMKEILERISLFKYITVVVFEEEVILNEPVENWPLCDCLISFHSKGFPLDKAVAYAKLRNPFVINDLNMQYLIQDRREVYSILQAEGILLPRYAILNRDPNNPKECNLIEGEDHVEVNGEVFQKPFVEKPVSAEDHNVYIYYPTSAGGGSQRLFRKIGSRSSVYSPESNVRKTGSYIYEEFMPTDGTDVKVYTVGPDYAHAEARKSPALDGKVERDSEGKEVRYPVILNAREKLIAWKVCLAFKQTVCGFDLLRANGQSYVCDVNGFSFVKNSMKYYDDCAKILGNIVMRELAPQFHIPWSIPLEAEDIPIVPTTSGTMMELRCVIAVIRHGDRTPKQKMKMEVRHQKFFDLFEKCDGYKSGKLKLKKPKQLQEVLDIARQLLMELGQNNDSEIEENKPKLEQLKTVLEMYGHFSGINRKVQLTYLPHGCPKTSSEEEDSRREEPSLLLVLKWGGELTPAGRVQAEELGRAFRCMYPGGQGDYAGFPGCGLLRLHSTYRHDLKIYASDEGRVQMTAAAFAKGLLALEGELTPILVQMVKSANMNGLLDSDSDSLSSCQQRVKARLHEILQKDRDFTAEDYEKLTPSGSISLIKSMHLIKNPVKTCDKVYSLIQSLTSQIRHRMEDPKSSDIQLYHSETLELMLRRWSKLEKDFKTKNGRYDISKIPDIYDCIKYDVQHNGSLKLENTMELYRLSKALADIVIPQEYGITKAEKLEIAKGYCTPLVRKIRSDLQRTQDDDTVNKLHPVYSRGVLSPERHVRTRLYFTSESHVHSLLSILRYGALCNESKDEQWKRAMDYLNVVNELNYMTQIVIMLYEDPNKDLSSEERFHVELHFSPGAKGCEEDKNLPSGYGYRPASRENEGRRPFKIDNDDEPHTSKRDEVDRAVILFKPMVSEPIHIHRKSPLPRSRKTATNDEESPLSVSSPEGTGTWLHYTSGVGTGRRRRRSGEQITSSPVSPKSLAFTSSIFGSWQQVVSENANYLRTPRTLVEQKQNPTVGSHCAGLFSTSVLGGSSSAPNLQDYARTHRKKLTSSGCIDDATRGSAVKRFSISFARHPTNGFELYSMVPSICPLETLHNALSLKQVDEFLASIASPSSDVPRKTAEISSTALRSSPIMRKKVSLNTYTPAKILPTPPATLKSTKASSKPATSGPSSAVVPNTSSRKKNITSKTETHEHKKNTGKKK
UniProt P49593, sequence (P49593 whole entry, looked up): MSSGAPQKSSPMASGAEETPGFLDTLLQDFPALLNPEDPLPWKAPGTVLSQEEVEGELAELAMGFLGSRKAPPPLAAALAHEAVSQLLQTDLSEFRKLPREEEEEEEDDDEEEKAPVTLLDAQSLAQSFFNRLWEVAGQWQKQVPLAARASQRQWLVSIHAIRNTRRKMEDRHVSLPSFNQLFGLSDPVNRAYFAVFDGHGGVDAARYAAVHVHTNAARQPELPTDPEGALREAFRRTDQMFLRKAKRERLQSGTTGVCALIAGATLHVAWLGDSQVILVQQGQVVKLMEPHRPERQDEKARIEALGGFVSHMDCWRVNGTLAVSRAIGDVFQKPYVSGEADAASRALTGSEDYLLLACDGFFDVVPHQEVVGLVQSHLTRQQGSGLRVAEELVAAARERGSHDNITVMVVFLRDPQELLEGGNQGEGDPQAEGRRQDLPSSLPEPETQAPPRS
UniProt Q07864, sequence (Q07864 whole entry, looked up): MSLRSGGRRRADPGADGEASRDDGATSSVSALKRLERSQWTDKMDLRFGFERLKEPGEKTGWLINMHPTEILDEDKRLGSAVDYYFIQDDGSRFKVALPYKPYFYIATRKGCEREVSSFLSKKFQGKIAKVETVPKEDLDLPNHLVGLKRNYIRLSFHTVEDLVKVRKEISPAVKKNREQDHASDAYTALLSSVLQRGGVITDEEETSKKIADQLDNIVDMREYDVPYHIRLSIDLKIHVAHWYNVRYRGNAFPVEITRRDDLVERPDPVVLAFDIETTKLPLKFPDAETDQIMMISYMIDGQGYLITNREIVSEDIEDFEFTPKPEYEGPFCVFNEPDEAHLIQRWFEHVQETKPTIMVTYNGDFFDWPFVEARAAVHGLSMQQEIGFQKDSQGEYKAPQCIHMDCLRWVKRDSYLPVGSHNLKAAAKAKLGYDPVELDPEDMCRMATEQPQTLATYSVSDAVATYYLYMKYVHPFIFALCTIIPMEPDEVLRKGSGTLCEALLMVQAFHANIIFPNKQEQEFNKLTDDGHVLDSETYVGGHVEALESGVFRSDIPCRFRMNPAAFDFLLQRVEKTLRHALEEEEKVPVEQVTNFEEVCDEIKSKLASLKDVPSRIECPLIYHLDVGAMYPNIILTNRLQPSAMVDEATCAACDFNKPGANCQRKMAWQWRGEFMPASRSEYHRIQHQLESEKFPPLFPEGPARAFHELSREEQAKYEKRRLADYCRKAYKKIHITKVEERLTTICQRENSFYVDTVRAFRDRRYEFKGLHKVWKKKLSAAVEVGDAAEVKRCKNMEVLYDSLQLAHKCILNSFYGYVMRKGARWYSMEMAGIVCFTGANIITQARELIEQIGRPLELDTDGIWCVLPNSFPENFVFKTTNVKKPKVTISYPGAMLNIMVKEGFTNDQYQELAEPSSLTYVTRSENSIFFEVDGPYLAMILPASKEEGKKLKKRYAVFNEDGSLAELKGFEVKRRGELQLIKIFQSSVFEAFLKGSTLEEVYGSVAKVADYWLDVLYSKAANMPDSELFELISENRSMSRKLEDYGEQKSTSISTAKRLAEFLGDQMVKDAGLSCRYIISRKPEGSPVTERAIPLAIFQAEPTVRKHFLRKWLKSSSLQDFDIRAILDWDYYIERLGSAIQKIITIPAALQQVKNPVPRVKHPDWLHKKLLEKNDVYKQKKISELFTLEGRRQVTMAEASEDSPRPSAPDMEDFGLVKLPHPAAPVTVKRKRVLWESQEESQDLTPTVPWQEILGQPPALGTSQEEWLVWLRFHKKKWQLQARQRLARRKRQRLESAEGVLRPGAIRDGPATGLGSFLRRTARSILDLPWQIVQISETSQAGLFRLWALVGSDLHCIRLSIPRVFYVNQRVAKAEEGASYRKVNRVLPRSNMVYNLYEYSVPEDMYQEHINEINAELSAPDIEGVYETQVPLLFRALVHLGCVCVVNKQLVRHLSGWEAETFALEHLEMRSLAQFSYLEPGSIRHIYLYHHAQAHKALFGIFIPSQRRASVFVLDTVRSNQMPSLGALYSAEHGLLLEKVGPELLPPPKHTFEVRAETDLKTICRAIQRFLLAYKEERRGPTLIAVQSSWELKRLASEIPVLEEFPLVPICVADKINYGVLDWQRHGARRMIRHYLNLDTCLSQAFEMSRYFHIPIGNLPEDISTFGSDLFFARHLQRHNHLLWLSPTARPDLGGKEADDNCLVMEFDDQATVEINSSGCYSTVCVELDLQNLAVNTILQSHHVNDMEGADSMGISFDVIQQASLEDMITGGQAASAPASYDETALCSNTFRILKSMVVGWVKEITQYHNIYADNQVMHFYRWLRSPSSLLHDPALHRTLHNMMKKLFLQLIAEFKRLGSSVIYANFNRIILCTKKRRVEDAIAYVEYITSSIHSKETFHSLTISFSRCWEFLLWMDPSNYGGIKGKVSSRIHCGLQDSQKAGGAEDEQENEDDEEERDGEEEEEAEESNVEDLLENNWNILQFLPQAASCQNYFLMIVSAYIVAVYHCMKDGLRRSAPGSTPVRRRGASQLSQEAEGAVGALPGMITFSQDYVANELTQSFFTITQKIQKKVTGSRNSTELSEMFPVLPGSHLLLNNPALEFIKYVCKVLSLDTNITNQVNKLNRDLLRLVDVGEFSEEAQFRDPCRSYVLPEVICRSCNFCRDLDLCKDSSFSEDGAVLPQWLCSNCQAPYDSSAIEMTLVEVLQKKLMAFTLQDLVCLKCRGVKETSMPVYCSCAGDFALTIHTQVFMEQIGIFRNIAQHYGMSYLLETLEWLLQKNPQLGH

Target	probe-labelled cysteine peptide fold change (10 µM)	probe-labelled cysteine peptide fold change (50 µM)
PPIP5K2_O43314_382_CVIAVIR (UniProt O43314)	-0.0407	0.136
PHLPP1_O60346_859_LGDLDAMIFNNIEVLHCER (UniProt O60346)	0.218	0.0372
POLE_Q07864_558_SDIPCR (UniProt Q07864)	0.218	0.196
PRKCA_P17252_143+151_QCVINVPSLCGMDHTEKR (UniProt P17252)	-0.157	-0.459
PGM2_Q96G03_510_ACGKFEISAIR (UniProt Q96G03)	-0.602	-0.498
PPM1F_P49593_359_ALTGSEDYLLLACDGFFDVVPHQEVVGLVQSHLTR (UniProt P49593)	-0.201	-0.609
POP1_Q99575_706_LGTLAPFCCPWEQLTQDWESR (UniProt Q99575)	-0.0314	-0.242
